{"source": "paper PMC12136788", "binders": {"B1": {"name": "10882734_10882854_1689_CDS_ENSMUSG00000090112_ENSMUST00000044053|mouse|control|control (ssRNA)", "RNA": "GGGAGUUCUACAGUCCGACGAUCUUUUGUUUUAUCAAAUACAUCUUCUUUGUAAUUCUUCCCCAGUGUAAAAGUCCCAGAGAAACCAUGGCCUUUGAUCUGUUUCACAAGACCUUCAAAGAUUAAACAUUUCAACAUCCGCUUCAACAGAGGAUUGAGCAUCA"}, "B2": {"name": "8980754_8980874_117_5pUTR_ENSMUSG00000066643_ENSMUST00000085745|mouse|control|control (ssRNA)", "RNA": "GGGAGUUCUACAGUCCGACGAUCAUCGGAGAAGCUCCCGUCGCCUGGCAACCACCGCCGCCCAGUCGCAUCCGGGGCGCUUAGAGAACUUCCGGCGUGGCCUCCCGCCCCGUGUUGGUCGUCGUGCGCCUGCGCGGGCGAUGGCAACAGAGGAUUGAGCAUCA"}, "B3": {"name": "chr5:6374528:6374529:-_ENSG00000133398_ENST00000255764|hu_hu|motif|central (ssRNA)", "RNA": "GGGAGUUCUACAGUCCGACGAUCAGCUAGAGCCCUCUCCAGGCACUCUUUGGUGUAGAGCUGGGGAUUUCGACCUUGAUCGGUAUAUUCAAAAACUUCUAACGGUACAGUAAUAUCAUGAAGCUGCUGUCUGCACUUGUCAAUCAACAGAGGAUUGAGCAUCA"}, "B4": {"name": "chr14:31998760:31998761:-_ENSMUSG00000021910_ENSMUST00000163846|mus_mus|FALSE|FALSE (ssRNA)", "RNA": "GGGAGUUCUACAGUCCGACGAUCUGCAGGCAGAAUGGCCACAUGAAGGACACCCCAAAGCACAAGACAGGUACAGACACUAUGGAGCUGGGAAGGCUUUCCAGCUCUGGAGUCACAAAAGGAAAAACAGCUUUUUGUCGUCUCCAACAGAGGAUUGAGCAUCA"}, "B5": {"name": "chr9:120864499:120864500:+_ENSMUSG00000006932_ENSMUST00000007130|mus_mus|FALSE|FALSE (ssRNA)", "RNA": "GGGAGUUCUACAGUCCGACGAUCGUAAUUAUUGCAAGUGAGGUUAGAGAGAAUUCCAGCUGCACAGGUGACCACAUUUAUAUCAUCGGAACCCAGAAGCUGCACUAGAGUCCCAAGGAGGCCUUCCAUCCCUUCCUGCUUAGUCAACAGAGGAUUGAGCAUCA"}, "B6": {"name": "chr16:23446027:23446028:-_ENSG00000168434_ENST00000307149|hu_mus|FALSE|FALSE (ssRNA)", "RNA": "GGGAGUUCUACAGUCCGACGAUCGUAGUAUGCAAGGAGCUGGGGCAUCCGGUCGAUUUCAGUAAACACCUUCACAAACACUUUAGACUGAUCCACAGACUGAGAGGUGAACGAUGCUACGAUCUGGGGGCUGGCCAGGGCCUCCAACAGAGGAUUGAGCAUCA"}, "B7": {"name": "chr13:47345604:47345605:-_ENSG00000139684_ENST00000378720|perfect_dup|FALSE|FALSE (ssRNA)", "RNA": "GGGAGUUCUACAGUCCGACGAUCCAGGUACUUAGCAUGGUGUCUGAUGUGGUCAGCGAUGAAAGUUGCAAUGAAGUAGUAGCUAUGAUCAUAACCCUCUUGUAGUCUAAACACAACAGGGAUUUUCUUCUCUGUGCAGGCAGCCAACAGAGGAUUGAGCAUCA"}, "B8": {"name": "chr19:55172109:55172110:-_ENSMUSG00000024978_ENSMUST00000061856|mus_mus|motif|central (ssRNA)", "RNA": "GGGAGUUCUACAGUCCGACGAUCGUGUGUUUACAUCGGCCAAGGCUGUAUUCCGAUGAACUGGGCAGAUAAGAAACGUCGGUUGUGCCAACUGUCACUGAAGACUCCUCCAUGGCAGAACGUGCAAGUCCCAAACCAUGUGCUCAACAGAGGAUUGAGCAUCA"}, "B9": {"name": "chr2:179515052:179515053:+_ENSMUSG00000000305_ENSMUST00000000314|mus_hu|mus_mus_mus_hu_False|68_68 (ssRNA)", "RNA": "GGGAGUUCUACAGUCCGACGAUCGCUGUCCCAUGCAGUCACCGUGAACGCCACCUGCUCGGAGGGGAUCUUCAACUCCCGGGUGGCGAAGACUGUCCCAUCUGCCCCAACUUUGAAGUCCAUGCUGUUGGUCUCAUAUUGUGUCAACAGAGGAUUGAGCAUCA"}, "B10": {"name": "chr10:89103549:89103550:-_ENSMUSG00000069539_ENSMUST00000105294|mus_mus|FALSE|FALSE (ssRNA)", "RNA": "GGGAGUUCUACAGUCCGACGAUCUAUCGGUUGGUCUCUGUUGAGGCUGCUUCACGCUAGCAGGAGGAAUAGUCAAAGGGCUAAAGUUUGACAUAGUGGGAGGUGCUCCCAGACUCAUGGUGGUCACGCCAGCUGUGCCCGUCCCAACAGAGGAUUGAGCAUCA"}, "B11": {"name": "chr4:25749455:25749456:-_ENSG00000091490_ENST00000264868|hu_hu|FALSE|FALSE (ssRNA)", "RNA": "GGGAGUUCUACAGUCCGACGAUCGGAAGCACUAGGACCCUAGAAAAAUUCAAGGAGAAAAAUGUAAACCAAUUUACAAAGCUAUUGCCCUCCCUGCAUUUCCAGGCACAAACAAUUUAUUUCAAGGUGCCUUAUAACUGCUAGCAACAGAGGAUUGAGCAUCA"}, "B12": {"name": "chr5:128440902:128440903:+_ENSG00000066583_ENST00000173527|hu_mus|hu_hu_hu_mus_True|58_108 (ssRNA)", "RNA": "GGGAGUUCUACAGUCCGACGAUCUUGAACCGUGCUCCCAAGUCCUUUGGGGUAUUGUUCCGUUAUGAUAACUGGAAUUCCUAAAAUCCGAGCUCCUUGCAACAGUCUCUGUCCCACACUAAUGAUGUCCCCAAAGUAUUUGAUCAACAGAGGAUUGAGCAUCA"}, "B13": {"name": "35545365_35547799_1079_CDS_ENSG00000101347_ENST00000262878|human|control|control (ssRNA)", "RNA": "GGGAGUUCUACAGUCCGACGAUCCCAUUUGUCCACAUCAAUGCCAUUUCUUUUAUUAGAUACUAUCUCAUAAAGGAAGCUUUUGUUUUCAGGACGCCCUUUAUAUGGCCACAAUGAAUCUUCGACAGGUGAUUCAAGUGGUCCCAACAGAGGAUUGAGCAUCA"}, "B14": {"name": "chr3:176767854:176767855:-_ENSG00000177565_ENST00000430069|hu_hu|hu_hu_hu_mus_False|98_98 (ssRNA)", "RNA": "GGGAGUUCUACAGUCCGACGAUCGACAUCCUUGUUACUUGGAACAUCCUGCCCUCCUUCCCGUAUGCAGUGUCUAAGCACGAGCUGCGUAGGGCCACUCGUGCUGUUCUCACUGAGGUUCCAGAUUCUUGCCGUGGAGUCUCCCAACAGAGGAUUGAGCAUCA"}}, "note": "This is one part of the list.", "data": [{"molecular_target": "T1, UNK ZnF1-3 (human, UniProt Q9C0B0 31-174)", "T1 sequence": "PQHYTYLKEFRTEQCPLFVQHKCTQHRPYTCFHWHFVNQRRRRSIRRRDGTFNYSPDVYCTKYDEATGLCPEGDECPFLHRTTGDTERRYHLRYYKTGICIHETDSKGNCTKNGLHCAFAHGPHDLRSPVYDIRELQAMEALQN", "test": "nsRBNS (natural sequence RNA bind-n-seq); RBNS binding buffer (assumed for nsRBNS): 25 mM Tris pH 7.5, 150 mM KCl, 3 mM MgCl2, 0.01% Triton X-100, 500 ug/ml BSA, 20 U/ml SUPERase-In, 4 C; UNK is unkempt and MSI1 is Musashi-1; names of the RNAs are library labels; protein concentration not given here; high values mean tight binding", "units": {"binding signal": "enrichment R"}, "values": [{"binder": "B1", "binding signal": 0.887}, {"binder": "B2", "binding signal": 0.425}, {"binder": "B3", "binding signal": 1.08}, {"binder": "B4", "binding signal": 1.35}, {"binder": "B5", "binding signal": 1.49}, {"binder": "B6", "binding signal": 1.17}, {"binder": "B7", "binding signal": 1.16}, {"binder": "B8", "binding signal": 0.919}, {"binder": "B9", "binding signal": 0.721}, {"binder": "B10", "binding signal": 0.8}, {"binder": "B11", "binding signal": 1.44}, {"binder": "B12", "binding signal": 0.766}, {"binder": "B13", "binding signal": 0.604}, {"binder": "B14", "binding signal": 0.583}]}]}
